Reference: the supplement of paper PMC10369915
The other results are listed elsewhere or left out. Rule as the data show it: active = 3.2 or more and inactive = the rest. Only a few entries rise above the background.

Legend:
Experiment in all cases: enrichment score (SH2-bound / input frequency) (ratio); bacterial display of known human phosphotyrosine sites (pTyr-Var adds point mutants) read by sequencing; higher = stronger binding; tyrosines were phosphorylated by kinases first
Settings in all cases: peptide library: Human pTyr
[1] = molecular target: SHP2 C-SH2 domain E139D
[2] = molecular target: SHP2 C-SH2 domain wild-type
[3] = molecular target: SHP2 N-SH2 domain L43F
[4] = molecular target: SHP2 N-SH2 domain T42A
[5] = molecular target: SHP2 N-SH2 domain T52S
[6] = molecular target: SHP2 N-SH2 domain wild-type
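Also: displayed peptides selected on beads carrying the immobilized SH2 domain, with library peptides lacking any tyrosine serving as negative controls.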

Row | Binder | enrichment score [1] | enrichment score [2] | enrichment score [3] | enrichment score [4] | enrichment score [5] | enrichment score [6]
1 | ADIDEGLYSRQLAVL [UBA1_HUMAN_55_YA] | inactive: 0.717 | inactive: 0.58 | inactive: 0.762 | inactive: 0.562 | inactive: 0.708 | inactive: 0.742
2 | SCAWCPWYRFCRGCK [UBP32_HUMAN_1173] | inactive: 0.583 | inactive: 0.387 | inactive: 0.478 | inactive: 0.475 | inactive: 0.496 | inactive: 0.489
3 | EGGWMEDYDYVHLQG [BCAR1_HUMAN_664] | inactive: 0.724 | inactive: 0.635 | inactive: 0.728 | inactive: 0.694 | inactive: 0.662 | inactive: 0.771
4 | FGLSKKIYNGDYYRQ [UFO_HUMAN_698] | inactive: 1.33 | inactive: 1.24 | inactive: 1.48 | inactive: 1.09 | inactive: 1.35 | inactive: 1.39
5 | KKIANGDYARQGRIA [UFO_HUMAN_702_YA] | inactive: 1.03 | inactive: 0.836 | inactive: 0.793 | inactive: 0.782 | inactive: 0.935 | inactive: 1.2
6 | AKEYGFRYELVQYRW [UGGG2_HUMAN_1289] | inactive: 2.1 | inactive: 1.91 | inactive: 1.66 | inactive: 1.81 | inactive: 2.16 | inactive: 2.29
7 | SGLSSPIYIDLRGIV [UMPS_HUMAN_37] | inactive: 1.86 | inactive: 1.58 | inactive: 1.28 | inactive: 1.84 | inactive: 1.97 | inactive: 1.9
8 | GQRAQENYEGSEEVS [USP9X_HUMAN_2556] | inactive: 1.37 | inactive: 0.812 | inactive: 0.911 | inactive: 0.636 | inactive: 1.01 | inactive: 0.973
9 | GGGGMAKYGEHEASP [UTRO_HUMAN_4] | inactive: 2.11 | inactive: 0.684 | inactive: 0.548 | inactive: 0.652 | inactive: 0.727 | inactive: 0.691
10 | GWWRGEIYGRVGWFP [VAV_HUMAN_826] | inactive: 2.52 | inactive: 2.3 | inactive: 2.16 | inactive: 2.4 | inactive: 2.83 | active: 3.4
11 | VEEDASEYCGGGGGG [VAV_HUMAN_844_YA] | inactive: 0.987 | inactive: 0.798 | inactive: 1.13 | inactive: 0.874 | inactive: 0.663 | inactive: 0.951
12 | SVGDEDIYSGLSDQI [VAV1_HUMAN_142] | inactive: 1.04 | inactive: 0.812 | inactive: 0.794 | inactive: 0.854 | inactive: 0.596 | inactive: 0.917
13 | TENDDDVYRSLEELA [VAV2_HUMAN_142] | inactive: 1.08 | inactive: 1.24 | inactive: 0.847 | inactive: 1.09 | inactive: 1.1 | inactive: 1.31
14 | DTEETEDYRQFRKSV [BCLAF1_HUMAN_408] | inactive: 1.09 | inactive: 0.785 | inactive: 0.806 | inactive: 0.864 | inactive: 0.973 | inactive: 0.828
15 | TKYRWTEYGLTFTEK [VDAC1_HUMAN_67] | inactive: 1.39 | inactive: 1.35 | inactive: 1.19 | inactive: 1.53 | inactive: 1.2 | inactive: 1.97
16 | TKYKVCNYGLTFTQK [VDAC3_HUMAN_67] | inactive: 1.11 | inactive: 1.26 | inactive: 1.23 | inactive: 1.57 | inactive: 1.51 | inactive: 1.35
17 | VQQDGKDYIPINAIL [VGFR1_HUMAN_1169] | inactive: 1.13 | inactive: 0.946 | inactive: 1.15 | inactive: 1.06 | inactive: 0.97 | inactive: 1.12
18 | GSSDDVRYVNAFKFM [VGFR1_HUMAN_1213] | active: 3.69 | active: 6.38 | inactive: 1.76 | active: 3.3 | inactive: 1.59 | inactive: 0.912

Row | Binder | enrichment score [1] | enrichment score [2] | enrichment score [3] | enrichment score [4] | enrichment score [5] | enrichment score [6]
19 | ATSMFDDYQGDSSTL [VGFR1_HUMAN_1242] | inactive: 0.43 | inactive: 0.498 | inactive: 0.408 | inactive: 0.485 | inactive: 0.468 | inactive: 0.528
20 | EGKRRFTYDHAELER [VGFR1_HUMAN_1309] | inactive: 0.746 | inactive: 0.805 | inactive: 0.784 | inactive: 0.863 | inactive: 0.882 | inactive: 0.855
21 | CCSPPPDYNSVVLAS [VGFR1_HUMAN_1327_YA] | inactive: 0.705 | inactive: 0.67 | inactive: 0.616 | inactive: 0.625 | inactive: 0.852 | inactive: 0.809
22 | DYNSVVLYSTPPIGG [VGFR1_HUMAN_1333] | inactive: 0.772 | inactive: 0.734 | inactive: 0.871 | inactive: 0.741 | inactive: 0.743 | inactive: 0.844
23 | VCDPKFHYDNTAGIS [VGFR2_HUMAN_1214] | inactive: 1.05 | inactive: 1.06 | inactive: 0.84 | inactive: 1.11 | inactive: 1.07 | inactive: 1.24
24 | DDTDTTVYSSEEAEL [VGFR2_HUMAN_1319] | inactive: 1.06 | inactive: 1.1 | inactive: 1.06 | inactive: 1.06 | inactive: 1.07 | inactive: 1.21
25 | ARGGQVFYNSEAGEL [VGFR3_HUMAN_1333_YA] | inactive: 0.577 | inactive: 0.521 | inactive: 0.498 | inactive: 0.62 | inactive: 0.549 | inactive: 0.604
26 | EQCEALSYDASQWEF [VGFR3_HUMAN_833_YA] | inactive: 1.33 | inactive: 1.18 | inactive: 1.26 | inactive: 1.16 | inactive: 1.39 | inactive: 1.58
27 | SFFDGDCYIILAIHK [VIL1_HUMAN_46] | inactive: 1.62 | inactive: 1.91 | inactive: 1.65 | inactive: 1.87 | inactive: 1.92 | inactive: 2
28 | KTASSLSYDIHYWIG [VIL1_HUMAN_60] | inactive: 1.59 | inactive: 1.69 | inactive: 1.68 | inactive: 1.53 | inactive: 1.63 | inactive: 2.19
29 | ASSPGGVYATRSSAV [VIME_HUMAN_61] | inactive: 0.632 | inactive: 0.656 | inactive: 0.622 | inactive: 0.581 | inactive: 0.568 | inactive: 0.584
30 | ANVMMGPYRQDLLAK [VINC_HUMAN_537] | inactive: 0.553 | inactive: 0.529 | inactive: 0.612 | inactive: 0.618 | inactive: 0.657 | inactive: 0.822
31 | KSFLDSGYRILGAVA [VINC_HUMAN_822] | inactive: 1.11 | inactive: 1.01 | inactive: 1.04 | inactive: 1.1 | inactive: 2.88 | inactive: 1.22
32 | EDQEALDYFSDKESG [BCLF1_HUMAN_383] | inactive: 1.5 | inactive: 1.13 | inactive: 1.06 | inactive: 1.22 | inactive: 1.51 | inactive: 1.29
33 | CIPNLIEYVKQNIDN [VIR_HUMAN_914] | inactive: 1.27 | inactive: 1.19 | inactive: 1.95 | inactive: 1.51 | inactive: 1.49 | inactive: 1.84
34 | TNQTPPTYNKTNKFT [VPP1_HUMAN_364] | inactive: 1.32 | inactive: 0.927 | inactive: 1.06 | inactive: 0.78 | inactive: 1.07 | inactive: 0.98
35 | VHVGSRPYTEFPFGQ [VWA1_HUMAN_83] | inactive: 0.648 | inactive: 0.621 | inactive: 0.776 | inactive: 0.704 | inactive: 0.666 | inactive: 0.686
36 | SRRIAVEYSDSDDDS [WASF3_HUMAN_486] | inactive: 1.26 | inactive: 1.21 | inactive: 1.4 | inactive: 0.959 | inactive: 1.03 | inactive: 1.24
